According to PubChem BioAssay AID488969 (Vanderbilt High Throughput Screening Facility, 2010):
The full ranking holds about 110,000 compounds; the median of “z-score” is about -0.1, and the highest 2% start at about 2. This is one part of the list.

These compounds were tested against Metabotropic glutamate receptor 8 (Rattus norvegicus) (UniProt P70579) (assay: rat mGluR8 modulators via GIRK flux, primary screen, cell-based, thallium flux, HTS (AID 488969)). Conditions: HEK293 rat mGluR8, GIRK (G protein-gated inwardly rectifying potassium channel) thallium flux, FluoZin2; at 10 µM; stronger effect = higher value; submaximal glutamate (EC20) added with thallium.
Sequence of UniProt P70579 (P70579 whole entry, looked up): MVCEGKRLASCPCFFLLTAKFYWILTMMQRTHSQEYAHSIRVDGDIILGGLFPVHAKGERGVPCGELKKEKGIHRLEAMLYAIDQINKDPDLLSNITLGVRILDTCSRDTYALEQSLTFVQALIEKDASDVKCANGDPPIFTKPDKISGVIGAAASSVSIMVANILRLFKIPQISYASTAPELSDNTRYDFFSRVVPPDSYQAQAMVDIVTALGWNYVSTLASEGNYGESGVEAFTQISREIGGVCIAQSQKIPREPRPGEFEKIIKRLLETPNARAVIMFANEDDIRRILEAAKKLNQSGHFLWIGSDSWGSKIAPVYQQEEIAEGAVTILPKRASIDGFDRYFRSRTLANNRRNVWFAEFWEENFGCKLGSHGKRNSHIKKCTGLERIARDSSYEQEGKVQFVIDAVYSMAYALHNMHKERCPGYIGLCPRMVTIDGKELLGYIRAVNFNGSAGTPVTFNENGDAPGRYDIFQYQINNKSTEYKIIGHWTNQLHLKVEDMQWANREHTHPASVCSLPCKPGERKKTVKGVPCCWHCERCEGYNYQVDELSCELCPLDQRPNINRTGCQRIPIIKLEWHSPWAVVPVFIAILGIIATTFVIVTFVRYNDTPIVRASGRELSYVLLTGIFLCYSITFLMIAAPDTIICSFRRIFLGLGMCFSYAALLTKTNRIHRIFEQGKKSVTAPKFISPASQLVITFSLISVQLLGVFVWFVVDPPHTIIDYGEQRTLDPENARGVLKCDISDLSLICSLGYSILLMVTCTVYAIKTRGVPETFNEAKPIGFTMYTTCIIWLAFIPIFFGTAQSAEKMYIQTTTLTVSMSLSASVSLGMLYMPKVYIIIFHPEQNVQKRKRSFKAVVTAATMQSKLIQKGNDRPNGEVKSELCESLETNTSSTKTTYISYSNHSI

Point of comparison: `O=C(NCc1ccccc1)c1cc(-n2cnnc2)ccc1Cl`, z-score 0.026. Against it:
- O=C(CSc1c[nH]c2ccccc12)NCc1ccc2c(c1)OCO2 — higher, 2.27
- Cc1ccc(N(CC(=O)NCc2ccncc2)S(C)(=O)=O)cc1 — lower, -0.00504
- C/C=C/C=C/C(=O)Nc1nccs1 — higher, 0.204
- COC(=O)COc1cccc(NC(=O)COc2ccccc2)c1 — lower, -1.71
- O=C(O)c1c[nH]c2cc(C(F)(F)F)ccc2c1=O — lower, -0.0696
- CC(=O)c1ccc(NC(=S)N2CCCC(CO)C2)cc1 (stereo not given) — lower, -0.267
- CC1=C(C(=O)OC(C)C)C(c2coc3ccccc3c2=O)C2=C(CCCC2=O)N1 (stereo not given) — lower, -0.336
- O=C(Nc1ccc(Cl)cc1)Nc1nnc(CSc2ccc(Cl)cc2)s1 — lower, -0.625
- Cc1nc2ccccn2c1C(=O)N/N=C/c1cc(C)n(-c2ccc(Cl)cc2)c1C — lower, -0.72
- COc1cc(C(=O)OCC(=O)N2CCCC2)cc(OC)c1OC — lower, -0.296
- O=C(CSc1nc2[nH]ncc2c(=O)[nH]1)N1CCCC1 — lower, -0.204
- Cc1ccc(Oc2ncc(CN3CC(C)OC(C)C3)s2)cc1 (stereo not given) — lower, -0.107
- COc1ccccc1NC(=S)NCc1cccnc1 — lower, -0.0019
- Cc1cc(=O)oc2cc(OCC3CC(c4ccc(Cl)cc4)=NO3)ccc12 (stereo not given) — lower, -0.0634
- Cc1nc2cc(-c3cccc(F)c3)nn2c(N2CCN(C(=O)c3ccco3)CC2)c1C — lower, -0.0434
- CCOc1c(OC)cccc1C1CC(=O)Nc2cc(OC)c(OC)cc21 (stereo not given) — lower, -1.8
- CC1=C(C(N)=O)C(c2ccccn2)n2nc(SCc3ccccc3)nc2N1 (stereo not given) — higher, 0.156
- Cc1cc(C)nc(NC(=O)/C=C/c2ccc(Cl)cc2Cl)c1 — lower, -0.494
- Cc1ccccc1NS(=O)(=O)c1ccc(NC(=O)c2ccco2)cc1 — lower, -0.401
- Cc1cc(C)nc(N2CCCC(C(=O)Nc3nc4ccc(S(C)(=O)=O)cc4s3)C2)n1 (stereo not given) — lower, -0.27
- O=[N+]([O-])c1ccc(N2CCN(S(=O)(=O)c3ccc4ccccc4c3)CC2)cc1NCc1ccco1 — lower, -0.0817
- Cc1nn2cc(-c3ccc(N)cc3)nc2s1 — lower, -0.741
- CCOC(=O)c1c(-n2c(C)cc(C=O)c2C)sc2c1CCCC2 — lower, -0.366
- CN1CCN(C(=O)CN(Cc2ccccc2)S(C)(=O)=O)CC1 — lower, -0.686
- C/C(Cn1cnc([N+](=O)[O-])n1)=N\NC(=O)c1ccc(Br)cc1 — lower, -0.261
- COc1cc(/C=C(\C#N)c2nc3c(s2)CC(C)CC3)ccc1O (stereo not given) — higher, 1.58
- O=C(CSc1nnc(NC(=O)C2CCC2)s1)NC1CC1 — higher, 0.0674
- CCOC(=O)c1c(-c2ccc(C)cc2)csc1NC(=O)C1CC=CCC1C(=O)O (stereo not given) — higher, 0.33
- Cc1ccc2[nH]c(=O)c(CN(CCN3CCOCC3)C(=O)Nc3ccccc3F)cc2c1 — lower, -0.743
- Cc1nc(CSc2ccc(Cl)cc2)cc(N2CCOCC2)n1 — lower, -0.356
- N#CC1=C(N)Oc2cc(N)ccc2C1c1ccc(F)cc1 (stereo not given) — lower, -0.769
- COc1cc(C(=O)O)ccc1OCc1c(C)noc1C — lower, -0.061
- CCCCOc1ccccc1P(=O)(O)CP(=O)(c1ccccc1)c1ccccc1 — higher, 0.154
- COc1ccc(CC(=O)c2ccc(OC)c(OC)c2C)cc1OC — lower, -0.202
- CCOC(=O)c1c(-c2ccc(F)cc2)csc1NC(=O)CCN1C(=O)c2ccccc2C1=O — higher, 0.297
- COc1ccc(NC(=O)C(c2cc3c(cc2[N+](=O)[O-])OCO3)N(C)C)cc1 (stereo not given) — lower, -0.349
- C[N+]1(CC(=O)Nc2ccccc2Cl)CCN(C(=O)c2cccs2)CC1 — higher, 0.141
- CCOc1cc2c3c(c1)C1(Nc4ccccc4S1)C(=O)N3C(C)(C)CC2C (stereo not given) — lower, -1.21
- C/C(=N\NC(=O)C(C)n1nc(C)c([N+](=O)[O-])c1C)c1ccccc1O (stereo not given) — higher, 0.938
- CCCCCCOc1ccc(C(=O)n2cnc(N)n2)cc1 — higher, 0.329
- Cc1ccccc1N(CC(=O)Nc1ccccc1C(=O)O)S(C)(=O)=O — higher, 0.226
- CN(C(=O)CN1C(=O)c2ccccc2S1(=O)=O)c1ccccc1C(=O)O — higher, 0.248
- COc1ccc(C2=NC(C(F)(F)F)(C(F)(F)F)c3c(n(C)c(=O)n(C)c3=O)N2)cc1 — higher, 0.0715
- O=C(Nc1ccccc1N1CCOCC1)C1CCN(S(=O)(=O)c2cccc(C(F)(F)F)c2)CC1 — lower, -0.294
- Cc1ncsc1CCOC(=O)c1cccc([N+](=O)[O-])c1 — lower, -0.117
- C/C(=N\NS(=O)(=O)c1ccc(Cl)c([N+](=O)[O-])c1)c1ccc(C)o1 — higher, 0.17
- O=C(/C=C\c1ccco1)Nc1ccc(N2CCN(C(=O)c3ccccc3)CC2)cc1 — lower, -0.287
- COc1ccc(Cl)c(S(=O)(=O)N2CCCC2)c1 — higher, 1.16
- COc1ccc(OC)c(NC(=O)c2cc3c(Cl)nc4ccccc4c3s2)c1 — lower, -0.02
- Cc1ccc(OCC(=O)Nc2ccc(S(=O)(=O)Nc3ccccn3)cc2)c(C)c1 — lower, -0.153
- CC1Cc2ccccc2N1C(=O)CSC1=NCCS1 (stereo not given) — lower, -0.206
- CCCCCCc1cc2cc(-c3nnc(-c4ccccc4OC)o3)c(=O)oc2cc1O — lower, -0.211
- CN(C(=O)CCN1C(=O)c2ccccc2C1=O)C1CCCCC1 — lower, -0.12
- O=C(c1ccc(-c2cccc(C(F)(F)F)c2)o1)N1CCOCC1 — higher, 0.431
- Cc1ccc(CCNC(=O)C2CCCN(c3nc4ccccc4o3)C2)cc1 (stereo not given) — higher, 0.299
- Nc1nc(-c2cccc(NS(=O)(=O)c3ccccc3)c2)cs1 — higher, 1.4
- CC(C)(C)C(=O)N1CCCC1C(=O)O (stereo not given) — higher, 0.797
- Clc1ccc(CN2CCN(c3ncnc4scc(-c5cccs5)c34)CC2)cc1 — lower, 0.00228
- COc1ccc2[nH]c(=O)c(CN(Cc3nnnn3Cc3ccccc3)CC3CCCO3)cc2c1 (stereo not given) — higher, 0.619
- O=C(CCCCCN1C(=O)c2ccccc2C1=O)NCc1ccco1 — higher, 0.687
- COCCn1c(C)nc2oc3ccc(Br)cc3c(=O)c2c1=O — lower, -0.75
- CSc1ccc(CN(C)CC(=O)Nc2ccccc2Br)cc1 — lower, -0.0592
- COc1ccc(NC(=O)CN2CCN(C3c4ccccc4-c4ccccc43)CC2)c(OC)c1 — lower, -1.15
- Cc1ccc(NC(=O)CN(C)C(=O)COc2c(Cl)cc(Cl)c3ccc(C)nc23)cc1 — lower, -0.273
- Cc1[nH]c(=O)[nH]c(=O)c1NC(=O)c1sc2nc3c(C)cccc3cc2c1N — lower, -0.256
- COc1cccc(N/C=C/C(=O)c2ccc(Cl)cc2)c1 — higher, 0.0619
- CC(=O)Nc1ccc(NC(=O)CSCCc2ccccn2)cc1 — higher, 0.263
- COc1cc(CNCc2ccccn2)ccc1OCC(=O)NC(C)(C)C — lower, -0.0846
- CC(C)C[C@H](NC(=O)OC(C)(C)C)c1nnc(SCC(=O)Nc2ccc(Br)cc2)o1 — lower, -0.171
